The supplement of paper PMC8728848
This is one part of the list.

What was measured:
Assay in all cases: glycan array binding signal (z-score within array); higher = stronger binding
Settings in all cases: glycan notation: IUPAC condensed, linker removed
[1] = target: Fuc(a1-2)Gal
Method in brief: (§1)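 Arrays were curated from the Consortium for Functional Glycomics database, 3228 in total, and kept only where the protein sequence was available. Binding is expressed as a within-array Z-score. This score was averaged across arrays of the same protein sequence at different concentrations or buffers and across linkers, and negative values can be read as non-binding.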

[2] = target: Fuc(a1-2)Gal(b1-3)GalNAc
Method in brief: as §1

[3] = target: Fuc(a1-2)Gal(b1-3)GalNAc(b1-3)Gal
Method in brief: as §1

[4] = target: Fuc(a1-2)Gal(b1-3)GalNAc(b1-3)Gal(a1-4)Gal(b1-4)Glc
Method in brief: as §1

[5] = target: Fuc(a1-2)Gal(b1-3)GalNAc(b1-4)[Neu5Ac(a2-3)]Gal(b1-4)Glc
Method in brief: as §1

[6] = target: Fuc(a1-2)Gal(b1-3)GlcNAc
Method in brief: as §1

[7] = target: Fuc(a1-2)Gal(b1-3)GlcNAc(b1-2)Man(a1-3)[Fuc(a1-2)Gal(b1-3)GlcNAc(b1-2)Man(a1-6)]Man(b1-4)GlcNAc(b1-4)GlcNAc
Method in brief: as §1

[8] = target: Fuc(a1-2)Gal(b1-3)GlcNAc(b1-3)Gal(b1-4)Glc
Method in brief: as §1

[9] = target: Fuc(a1-2)Gal(b1-3)GlcNAc(b1-3)[Gal(b1-4)[Fuc(a1-3)]GlcNAc(b1-6)]Gal(b1-4)Glc
Method in brief: as §1

[10] = target: Fuc(a1-2)Gal(b1-3)[Fuc(a1-4)]GlcNAc
Method in brief: as §1

[11] = target: Fuc(a1-2)Gal(b1-3)[Fuc(a1-4)]GlcNAc(b1-2)Man(a1-3)[Fuc(a1-2)Gal(b1-3)[Fuc(a1-4)]GlcNAc(b1-2)Man(a1-6)]Man(b1-4)GlcNAc(b1-4)GlcNAc
Method in brief: as §1

[12] = target: Fuc(a1-2)Gal(b1-4)Glc
Method in brief: as §1

[13] = target: Fuc(a1-2)Gal(b1-4)Glc6S
Method in brief: as §1

[14] = target: Fuc(a1-2)Gal(b1-4)GlcNAc
Method in brief: as §1

[15] = target: Fuc(a1-2)Gal(b1-4)GlcNAc(b1-2)Man(a1-3)[Fuc(a1-2)Gal(b1-4)GlcNAc(b1-2)Man(a1-6)]Man(b1-4)GlcNAc(b1-4)GlcNAc
Method in brief: as §1

[16] = target: Fuc(a1-2)Gal(b1-4)GlcNAc(b1-3)Gal(b1-4)GlcNAc
Method in brief: as §1

[17] = target: Fuc(a1-2)Gal(b1-4)GlcNAc(b1-3)Gal(b1-4)GlcNAc(b1-3)Gal(b1-4)GlcNAc
Method in brief: as §1

[18] = target: Fuc(a1-2)Gal(b1-4)GlcNAc6S
Method in brief: as §1

[19] = target: Fuc(a1-2)Gal(b1-4)[Fuc(a1-3)]GlcNAc
Method in brief: as §1

[20] = target: Fuc(a1-2)Gal(b1-4)[Fuc(a1-3)]GlcNAc(b1-2)Man(a1-3)[Fuc(a1-2)Gal(b1-4)[Fuc(a1-3)]GlcNAc(b1-2)Man(a1-6)]Man(b1-4)GlcNAc(b1-4)GlcNAc
Method in brief: as §1

[21] = target: Fuc(a1-2)Gal(b1-4)[Fuc(a1-3)]GlcNAc(b1-3)Gal(b1-4)[Fuc(a1-3)]GlcNAc
Method in brief: as §1

[22] = target: Fuc(a1-2)Gal(b1-4)[Fuc(a1-3)]GlcNAc(b1-3)Gal(b1-4)[Fuc(a1-3)]GlcNAc(b1-3)Gal(b1-4)[Fuc(a1-3)]GlcNAc
Method in brief: as §1

[23] = target: Fuc(a1-2)Gal6S(b1-4)Glc
Method in brief: as §1

[24] = target: Fuc(a1-2)Gal6S(b1-4)Glc6S
Method in brief: as §1

[25] = target: Fuc(a1-2)Gal6S(b1-4)GlcNAc
Method in brief: as §1

[26] = target: Fuc(a1-2)[Gal(a1-3)]Gal
Method in brief: as §1

[27] = target: Fuc(a1-2)[Gal(a1-3)]Gal(b1-3)GlcNAc
Method in brief: as §1

[28] = target: Fuc(a1-2)[Gal(a1-3)]Gal(b1-3)GlcNAc(b1-2)Man(a1-3)[Fuc(a1-2)[Gal(a1-3)]Gal(b1-3)GlcNAc(b1-2)Man(a1-6)]Man(b1-4)GlcNAc(b1-4)GlcNAc
Method in brief: as §1

[29] = target: Fuc(a1-2)[Gal(a1-3)]Gal(b1-4)Glc
Method in brief: as §1

[30] = target: Fuc(a1-2)[Gal(a1-3)]Gal(b1-4)GlcNAc
Method in brief: as §1

B1: Neuropilin-1 (Rattus norvegicus), Q9QWJ9 (protein)
chain: MERGLPLLCATLALALALAGAFRSDKCGGTIKIENPGYLTSPGYPHSYHPSEKCEWLIQAPEPYQRIMINFNPHFDLEDRDCKYDYVEVIDGENEGGRLWGKFCGKIAPSPVVSSGPFLFIKFVSDYETHGAGFSIRYEIFKRGPECSQNYTAPTGVIKSPGFPEKYPNSLECTYIIFAPKMSEIILEFESFDLEQDSNPPGGVFCRYDRLEIWDGFPEVGPHIGRYCGQKTPGRIRSSSGILSMVFYTDSAIAKEGFSANYSVLQSSISEDFKCMEALGMESGEIHSDQITASSQYGTNWSVERSRLNYPENGWTPGEDSYREWIQVDLGLLRFVTAVGTQGAISKETKKKYYVKTYRVDISSNGEDWITLKEGNKAIIFQGNTNPTDVVFGVFPKPLITRFVRIKPASWETGISMRFEVYGCKITDYPCSGMLGMVSGLISDSQITASNQGDRNWMPENIRLVTSRTGWALPPSPHPYINEWLQVDLGDEKIVRGVIIQGGKHRENKVFMRKFKIAYSNNGSDWKMIMDDSKRKAKSFEGNNNYDTPELRAFTPLSTRFIRIYPERATHSGLGLRMELLGCEVEVPTAGPTTPNGNPVDECDDDQANCHSGTGDDFQLTGGTTVLATEKPTIIDSTIQSEFPTYGFNCEFGWGSHKTFCHWEHDSHAQLRWRVLTSKTGPIQDHTGDGNFIYSQADENQKGKVARLVSPVVYSQSSAHCMTFWYHMSGSHVGTLRVKLHYQKPEEYDQLVWMVVGHQGDHWKEGRVLLHKSLKLYQVIFEGEIGKGNLGGIAVDDISINNHIPQEDCAKPTDLDKKNTEIKIDETGSTPGYEEGKGDKNISRKPGNVLKTLDPILITIIAMSALGVLLGAVCGVVLYCACWHNGMSERNLSALENYNFELVDGVKLKKDKLNPQSNYSEA
[1]
  glycan array binding signal (z-score): -0.27
[2]
  glycan array binding signal (z-score): -0.143
[3]
  glycan array binding signal (z-score): -0.219
[4]
  glycan array binding signal (z-score): -0.29
[5]
  glycan array binding signal (z-score): -0.274
[6]
  glycan array binding signal (z-score): -0.315
[7]
  glycan array binding signal (z-score): 4.09
[8]
  glycan array binding signal (z-score): -0.269
[9]
  glycan array binding signal (z-score): -0.257
[10]
  glycan array binding signal (z-score): -0.151
[11]
  glycan array binding signal (z-score): 1.8
[12]
  glycan array binding signal (z-score): -0.288
[13]
  glycan array binding signal (z-score): -0.153
[14]
  glycan array binding signal (z-score): -0.087
[15]
  glycan array binding signal (z-score): 7.46
[16]
  glycan array binding signal (z-score): -0.136
[17]
  glycan array binding signal (z-score): 0.184
[18]
  glycan array binding signal (z-score): -0.338
[19]
  glycan array binding signal (z-score): 0.038
[20]
  glycan array binding signal (z-score): 2.97
[21]
  glycan array binding signal (z-score): -0.294
[22]
  glycan array binding signal (z-score): -0.082
[23]
  glycan array binding signal (z-score): -0.096
[24]
  glycan array binding signal (z-score): -0.115
[25]
  glycan array binding signal (z-score): 0.115
[26]
  glycan array binding signal (z-score): -0.352
[27]
  glycan array binding signal (z-score): -0.339
[28]
  glycan array binding signal (z-score): 1.19
[29]
  glycan array binding signal (z-score): -0.154
[30]
  glycan array binding signal (z-score): -0.156
